From PMC4714714 (Journal of medicinal chemistry, 2015) come the findings set out here.

The structures appear in SMILES notation.

Assay [1] concerns RT16 CHO cells expressing human FRα. The settings on record: from Table 2 ratios.
Assay [2] concerns D4 CHO cells expressing human FRβ. The following applies: from Table 2 ratios.

On to `Nc1nc2[nH]c(CCCc3cc(C(=O)N[C@@H](CCC(=O)O)C(=O)O)cs3)cc2c(=O)[nH]1` [compound 7, (S)-2-({5-[3-(2-Amino-4-oxo-4,7-dihydro-3H-pyrrolo[2,3-d]-pyrimidin-6-yl)-propyl]-thiophene-3-carbonyl}-amino)-pentanedioic Acid], for which the “FRα selectivity ratio, fold greater than that for PMX” value in assay [1] is on record as 185 fold. For the same compound, the “FRβ selectivity ratio, fold greater than that for PMX” value in assay [2] is on record as 822 fold.
